At least one read-out could not be matched to a standard name with certainty.
Tested on: Promyelocytic leukemia cell strain HL-60
Test: HL-60 cell differentiation induction (morphological change, NBT reduction), each compound alone and with coexisting retinoid Am80
Type: cell-based
Method: Cell differentiation-inducing activity of each compound of the present invention used alone, and effect on cell differentiation-inducing activity of coexisting retinoid were examined. As a comparative or coexisting retinoid, Am80 ([4-[(5,6,7,8-tetrahydro-5,5,8,8-tetramethyl-2-naphthalenyl)carbamoyl]benzoic acid] was used. Promyelocytic leukemia cell strain HL-60 was used, and differentiation into granulocytic cells was determined by observing morphological change and measuring ability to reduce nitroblue tetrazolium (NBT). The ratios of differentiated cells shown in the following tables were calculated from the ability to reduce NBT. (A) Concentration-dependent differentiation-inducing ability of each compound alone and concentration-dependent effect on the differentiation-inducing ability of 1×10^-9 M Am80 were measured. […] Table 1 (B) Concentration-dependent differentiation-inducing ability of each compound alone and concentration-dependent effect on the differentiation inducing ability of 1×10^-10 M Am80 were measured. […] Table 2 (C) Concentration-dependent differentiation-inducing ability of each compound alone and concentration-dependent effect on the differentiation inducing ability of 3×10^-9 M Am80 were measured.

[1] = Table 2, compound concentration -6
[2] = Table 2, compound concentration -7
[3] = Table 2, compound concentration -8
[4] = Table 3, compound concentration -6
[5] = Table 3, compound concentration -7
[6] = Table 3, compound concentration -8
[7] = Table 1, compound concentration -6 (10^-6 M)
[8] = Table 1, compound concentration -7 (10^-7 M)
[9] = Table 1, compound concentration -8 (10^-8 M)

CN(C(=O)c1cc(C(C)(C)C)cc(C(C)(C)C)c1)c1ccc(/C=C2\SC(=O)NC2=O)cc1 [TZ161]
Ratio of differentiation-induced cells by treatment with each compound alone [1]: 3.6% | Ratio of differentiation-induced cells by treatment with each compound alone [2]: 1.8% | Ratio of differentiation-induced cells by treatment with each compound alone [3]: 3.5%

C=C(c1ccc(/C=C2\SC(=O)NC2=O)cc1)c1ccc2c(c1)C(C)(C)CCC2(C)C [TZ241]
Ratio of differentiation-induced cells by treatment with each compound alone [4]: 89% | Ratio of differentiation-induced cells by treatment with each compound alone [5]: 6.4% | Ratio of differentiation-induced cells by treatment with each compound alone [6]: 2.8%

C/C(=C\c1ccc(/C=C2\SC(=O)NC2=O)cc1)c1ccc2c(c1)C(C)(C)CCC2(C)C [TZ91]
Ratio of differentiation-induced cells by treatment with each compound alone [7]: 87% | Ratio of differentiation-induced cells by treatment with each compound alone [8]: 7% | Ratio of differentiation-induced cells by treatment with each compound alone [9]: 0.8% | Ratio of differentiation-induced cells by treatment with each compound alone (Table 1, compound concentration -9 (10^-9 M)): 1.2%

CC(C)(C)c1cc(C(=O)Nc2ccc(/C=C3\SC(=O)NC3=O)cc2)cc(C(C)(C)C)c1 [TZ151]
Ratio of differentiation-induced cells by treatment with each compound alone [1]: 78% | Ratio of differentiation-induced cells by treatment with each compound alone [2]: 4.4% | Ratio of differentiation-induced cells by treatment with each compound alone [3]: 3%

CC1(C)CCC(C)(C)c2cc(C(=O)Nc3ccc(/C=C4\SC(=O)NC4=O)cc3)ccc21 [TZ181]
Ratio of differentiation-induced cells by treatment with each compound alone [7]: 54% | Ratio of differentiation-induced cells by treatment with each compound alone [8]: 7% | Ratio of differentiation-induced cells by treatment with each compound alone [9]: 1%

CC1(C)CCC(C)(C)c2cc(C(=O)c3ccc(/C=C4\SC(=O)NC4=O)cc3)ccc21 [TZ221]
Ratio of differentiation-induced cells by treatment with each compound alone [4]: 51% | Ratio of differentiation-induced cells by treatment with each compound alone [5]: 2% | Ratio of differentiation-induced cells by treatment with each compound alone [6]: 1.4%

CN(c1ccc(/C=C2\SC(=O)NC2=O)cc1)c1ccc2c(c1)C(C)(C)CCC2(C)C [TZ325]
Ratio of differentiation-induced cells by treatment with each compound alone [4]: 87% | Ratio of differentiation-induced cells by treatment with each compound alone [5]: 21% | Ratio of differentiation-induced cells by treatment with each compound alone [6]: 2.2%

CN1c2ccccc2N=C(c2ccc(/C=C3\SC(=O)NC3=O)cc2)c2cc3c(cc21)C(C)(C)CCC3(C)C [TZ201]
Ratio of differentiation-induced cells by treatment with each compound alone [7]: 0.3% | Ratio of differentiation-induced cells by treatment with each compound alone [8]: 0.7% | Ratio of differentiation-induced cells by treatment with each compound alone [9]: 0.3%

C=C(c1ccc(/C=C2\SC(=O)NC2=O)cc1)c1cc2c(cc1C)C(C)(C)CCC2(C)C [TZ245]
Ratio of differentiation-induced cells by treatment with each compound alone [4]: 11% | Ratio of differentiation-induced cells by treatment with each compound alone [5]: 3% | Ratio of differentiation-induced cells by treatment with each compound alone [6]: 3.8%

CC1(C)CCC(C)(C)c2cc(Nc3ccc(/C=C4\SC(=O)NC4=O)cc3)ccc21 [TZ321]
Ratio of differentiation-induced cells by treatment with each compound alone [4]: 28% | Ratio of differentiation-induced cells by treatment with each compound alone [5]: 1.1% | Ratio of differentiation-induced cells by treatment with each compound alone [6]: 1.2%

CN(C(=O)c1ccc2c(c1)C(C)(C)CCC2(C)C)c1ccc(/C=C2\SC(=O)NC2=O)cc1 [TZ191]
Ratio of differentiation-induced cells by treatment with each compound alone [1]: 4.1% | Ratio of differentiation-induced cells by treatment with each compound alone [2]: 3.5% | Ratio of differentiation-induced cells by treatment with each compound alone [3]: 3.6%

From patent EP1048659A1, “RETINOID RECEPTOR AGONISTS” (Institute of Medicinal Molecular Design, Inc., priority 1997, dated 1999)
